Results taken from PubChem BioAssay (NCI).
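Test compounds were applied to cells in 96-well plates for 48 hours at 5 doses. The concentration for 50% growth inhibition is given as GI50. TGI marks complete inhibition of growth.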

System: NCI-H322M lung
Assay: NCI-60 cell line screen, 48 h

| Structure (SMILES) | TGI [µM] | GI50 [µM] |
| --- | --- | --- |
| O=S(Cc1ccccn1)c1nc2ccccc2nc1-c1ccccc1 (stereo unspecified) | > 100 | – |
| COc1ccc(NC(=O)/C(N=O)=C(/C)O)cc1 | > 100 | – |
| CC(/C=N\NC(=S)N1CCCCC1)=N/NC(=S)N1CCCCC1 | 15.8 | – |
| COC1[C@@H](OC(C)=O)[C@@H](NC(=O)C(Cl)(Cl)Cl)C(I)[C@@H](N2C(=O)c3ccccc3C2=O)[C@H]1OC (stereo partly specified) | > 100 | – |
| COc1cc(C2SCC(=O)N2c2ccc(Cl)c(Cl)c2)cc(OC)c1OC (stereo unspecified) | > 100 | – |
| CC(C)C[C@H]1[C@@H](OCc2ccccc2)COS(=O)N1[C@H](C)c1ccccc1 (stereo partly specified) | 55 | – |
| O=C1CC(C[C@H](O)C2CCCCC2O)CC(=O)N1Cc1ccccc1 (stereo partly specified) | > 100 | – |
| C[C@H]1NC(=O)C2CCCCN2C(=O)CN(C)C(=O)CNC(=O)C2CCCCN2C(=O)[C@@H](NC(=O)c2nc3ccccc3cc2O)[C@@H](C)NC(=O)C2CCCCN2C(=O)CN(C)C(=O)CNC(=O)[C@@H]2CCCCN2C(=O)C1NC(=O)c1nc2ccccc2cc1O (stereo partly specified) | 0.892 | – |
| COc1ccc(OC)c(N2C(=O)CSC2c2cc(OC)c(OC)c(OC)c2)c1 (stereo unspecified) | > 100 | – |
| Cc1c(Cl)cccc1N1C(=O)C(Cl)=C(Cl)C1=O | > 100 | – |
| CC(=C\c1ccccc1)/C=C(\C#N)C(N)=O | > 10 | – |
| Cc1c(O)c(C)c2c(C)cn(C(=O)C(C)(C)C)c2c1C | 35.4 | – |
| CC1C[C@]2(C)C(=O)Nc3ccccc3[C@@H]2Nc2ccccc21 (stereo partly specified) | 62.2 | – |
| COc1ccc(OC)c(C2Cc3cnc4nc(N)nc(N)c4c3C2)c1 (stereo unspecified) | 66.3 | – |
| COc1ccc(-c2c(C#N)c(O)n(NS(=O)(=O)c3ccc(C)cc3)c(=O)c2C#N)cc1 | > 100 | – |
| O=C(c1ccc(Cl)cc1)c1cnc(Nc2ccccc2Cl)s1 | 52.9 | – |
| c1ccc(SC2CCSc3ccccc3C2Sc2ccccc2)cc1 (stereo unspecified) | > 100 | – |
| CCOC(=O)c1ccc(C(=O)/C(C#N)=C2\CCCN2C)[nH]1 | > 100 | – |
| Cc1csc(Nc2nc(-c3cccc(Br)c3)nc(C(Cl)(Cl)Cl)n2)n1 | 2.88 | 0.8 |
| COc1ccc(-c2nc(SCC(=O)N/N=C/c3ccc(O)c(OC)c3)[nH]c2-c2ccc(OC)cc2)cc1 | > 100 | – |
| COc1ccc2[nH]cc(-c3nc(-c4c[nH]c5ncccc45)cs3)c2c1 | > 100 | 7.67 |
| O=C(c1cc(Cl)cc(Cl)c1)N1CCN(C(=O)c2cc(Cl)cc(Cl)c2)C1=S | 30.5 | – |
| N#CC1(C#N)C2CCCCC23OC(=N)C1(C#N)C(c1ccccc1)O3 (stereo unspecified) | > 100 | – |
| CCCCCCC[CH2][Sn]1([CH2]CCCCCCC)[O]C(=O)c2cccnc2[S]1 | > 100 | > 100 |
| COc1cccc2c1C(=O)c1c(O)c3c(c(O)c1C2=O)C[C@@](O)(C(=O)CO)C[C@@H]3OC1CC(N)C(OC)C(C)O1 (stereo partly specified) | 4.9 | – |
| Oc1cc(O)c2c(c1)OC(c1ccc(O)c(O)c1)C(OC1(c3cc(O)c(O)c(O)c3)Oc3cc(O)cc(O)c3C(O)C1O)C2 (stereo unspecified) | > 100 | – |
| NC12Oc3cc(O)cc(O)c3C1(c1ccc(Cl)cc1)c1c(O)cc(O)cc1O2 (stereo unspecified) | > 100 | – |
| C[C@@H]1CCC2[C@@H](C)[C@@H](OCCO[C@H]3OC4O[C@@]5(C)CCC6[C@H](C)CCC([C@H]3C)[C@@]46OO5)OC3O[C@@]4(C)CCC1[C@]32OO4 (stereo partly specified) | > 100 | – |

| Structure (SMILES) | TGI [µM] | GI50 [µM] |
| --- | --- | --- |
| CC(C)(C)NC(=O)N1N=C(c2ccccc2)C1c1ccccc1 (stereo unspecified) | > 100 | – |
| Cc1ccc(NC(=S)NNC(=O)c2cc(-c3ccccc3)nc3ccccc23)cc1 | 30.9 | – |
| CSc1nncc2[nH]c(C)nc12 | > 100 | – |
| CCCCCC(/C=C/C1CCC(=O)C1CC#C[Si](C)(C)C)OCc1ccccc1 (stereo unspecified) | > 100 | – |
| CCOC(=O)C(C)(C)Oc1ccc2c(C)c(-c3ccc(Cl)cc3)c(=O)oc2c1 | > 100 | – |
| O=C(O)CCN(CCC(=O)O)c1ccc(/C=C2\SC(=S)NC2=O)cc1 | > 100 | – |
| CCOc1ccc2c(c1)[n+]([O-])c(-c1ccccc1Cl)c(N)[n+]2[O-] | > 100 | – |
| COC(=O)C1C=CN(N(C)C)C2=C1C(=O)c1c(O)cccc1C2=O (stereo unspecified) | 4.33 | – |
| C=CC(=O)N1CCC(C2CCNc3c(C(N)=O)c(-c4ccc(Oc5ccccc5)cc4)nn32)CC1 (stereo unspecified) | > 100 | 2.43 |
| O=C(O)c1cccnc1 | > 100 | – |
| CC[C@@]12N=C(N(C)C)C[C@]1(O)ON=C2C | > 100 | – |
| CCOC(=O)C1(c2ccccc2)CCC(=O)CC1 | > 100 | – |
| N#Cc1c(-c2ccc(F)cc2)c(-c2ccc(F)cc2)nn(CCO)c1=O | > 100 | – |
| CCN(CC)C(=S)SS(=O)(=O)c1ccc(F)cc1 | > 100 | – |
| CC(C)(C)C(=O)OC(N)/C=C/c1ccccc1 (stereo unspecified) | > 100 | – |
| O=c1[nH]c(=O)n(C2CC(O)C(CO)O2)cc1CO (stereo unspecified) | > 100 | > 100 |
| CCOC(=O)C1=C(N)Oc2ccc(Br)cc2C1C(C#N)C(=O)OCC (stereo unspecified) | > 100 | – |
| Cn1c(=O)c2c(no[n+]2[O-])c2ccccc21 | 66.5 | – |
| CN(CCN(C)C(=S)NN)C(=S)NN | > 100 | – |
| CC(=O)O[C@H]1CCC2[C@@H]3CCC4=C(O)c5nocc5C[C@]4(C)C3CC[C@@]21C (stereo partly specified) | > 100 | – |
| COC(=O)C1(OC(=O)Sc2ccccc2)CCN(C)CC1 | > 100 | – |
| O=C(N/N=C1/C(=O)N(c2ccc(Cl)cc2Cl)C(=O)C(=O)C1c1nc2ccccc2o1)c1ccccc1O (stereo unspecified) | > 100 | – |
| CC(=O)Nc1ccc(-c2nc3ccccc3s2)cc1 | > 100 | – |
| CCCCCCNC(=O)c1nc(-c2ccccc2)oc1Cc1ccc(OP(=O)(O)O)cc1 | 38.2 | 17 |
| N#C/C(N)=C(\C#N)NC=NCc1ccccc1 | > 100 | – |
| CCCNC(=S)/N=C/c1c(O)c2ccccc2[nH]c1=O | > 100 | – |
| O=c1c2c(-c3ccccc3)onc2n(-c2ccccc2)c(=O)n1-c1ccccc1 | > 100 | – |
